This is an account of results in the BET-seq Pho4 binding data (Le et al. 2018).

The list shows a part of the results. These are noisy estimates, calculated here from bound and input reads.

The test concerns the target T1, Pho4 (S. cerevisiae) (UniProt P07270).
T1 sequence: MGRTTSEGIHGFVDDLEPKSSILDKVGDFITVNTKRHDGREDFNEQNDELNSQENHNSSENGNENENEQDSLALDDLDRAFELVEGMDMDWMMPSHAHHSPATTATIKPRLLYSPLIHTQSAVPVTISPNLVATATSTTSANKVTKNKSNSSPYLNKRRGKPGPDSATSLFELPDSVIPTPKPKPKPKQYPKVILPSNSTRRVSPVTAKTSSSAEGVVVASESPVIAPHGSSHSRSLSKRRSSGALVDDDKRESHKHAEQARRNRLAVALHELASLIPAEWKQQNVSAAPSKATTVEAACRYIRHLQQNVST
Nature of the test: relative binding free energy (BET-seq); higher = weaker binding. The conditions noted are these: reference: library average.
With GGGGTCACGTGCAGTT, the “relative binding free energy” value amounted to 0.17 kcal/mol.

For TGCAACACGTGAGGGG, the “relative binding free energy” value stood at 0.13 kcal/mol.

As for TTATTCACGTGGGGTA, the “relative binding free energy” value was 0.07 kcal/mol.

CTGAGCACGTGTGGTT: the “relative binding free energy” value is -0.17 kcal/mol.

Take TTATACACGTGAAGGG: the “relative binding free energy” value is 0.31 kcal/mol.

Consider TTAAGCACGTGTAGAT, for which the “relative binding free energy” value came to 0.1 kcal/mol.

Take AGTGCCACGTGGTATG: the “relative binding free energy” value was -0.08 kcal/mol.

For the sequence GTGTGCACGTGTTCGA, the “relative binding free energy” value was determined as 0.05 kcal/mol.

With GGATTCACGTGTACGG, the “relative binding free energy” value is 0.3 kcal/mol.

For the sequence AAATGCACGTGTTGTA, the “relative binding free energy” value was -0.01 kcal/mol.

For GTTTTCACGTGTGTAG, the “relative binding free energy” value was found to be 0.32 kcal/mol.

Consider TAGTGCACGTGAGCTG, for which the “relative binding free energy” value is 0.12 kcal/mol.

Consider ACGGACACGTGGTATG, for which the “relative binding free energy” value was -0.09 kcal/mol.

With GGTGGCACGTGGCGAT, the “relative binding free energy” value was -0.22 kcal/mol.

Take TTGGACACGTGTGCGT: the “relative binding free energy” value came to 0.03 kcal/mol.

In the case of TTTAACACGTGAATTG, the “relative binding free energy” value came to 0.25 kcal/mol.

For AGTTTCACGTGGAAAT, the “relative binding free energy” value turned out to be 0.23 kcal/mol.

In the case of CTTGACACGTGTGGCT, the “relative binding free energy” value worked out at 0 kcal/mol.

With TGCGCCACGTGGGGGA, the “relative binding free energy” value is -0.21 kcal/mol.

Take TCGTGCACGTGAAAGG: the “relative binding free energy” value stood at 0.24 kcal/mol.

For TGCATCACGTGGTGAT, the “relative binding free energy” value turned out to be 0.07 kcal/mol.

With GTTAACACGTGAGATG, the “relative binding free energy” value amounted to 0.31 kcal/mol.

With GGGTACACGTGCTGTA, the “relative binding free energy” value is -0.03 kcal/mol.

On to GAGGGCACGTGTCGTA, for which the “relative binding free energy” value was -0.04 kcal/mol.

With GCGAACACGTGTGGTG, the “relative binding free energy” value was 0.1 kcal/mol.

As for GTTTCCACGTGTTTGG, the “relative binding free energy” value turned out to be 0.06 kcal/mol.

Take CTTGCCACGTGGGTGT: the “relative binding free energy” value was -0.31 kcal/mol.

As to TTAAGCACGTGGGCAG, the “relative binding free energy” value was -0.29 kcal/mol.

Take GGAGTCACGTGAGGGT: the “relative binding free energy” value was 0.29 kcal/mol.

CGTTTCACGTGGGCCG: the “relative binding free energy” value was 0.24 kcal/mol.

Regarding ATGTCCACGTGAGATG, the “relative binding free energy” value stood at 0.29 kcal/mol.

Take CAATGCACGTGTTTTG: the “relative binding free energy” value was -0.03 kcal/mol.

In the case of TATGACACGTGTGGTT, the “relative binding free energy” value came to 0.11 kcal/mol.

As for TGCGGCACGTGACAGG, the “relative binding free energy” value is 0.07 kcal/mol.

As to TCTAGCACGTGAAGGG, the “relative binding free energy” value stood at 0.24 kcal/mol.

Consider CGTTTCACGTGACTTT, for which the “relative binding free energy” value amounted to 0.35 kcal/mol.

In the case of CTGACCACGTGGTGTT, the “relative binding free energy” value was determined as 0 kcal/mol.

For ATAATCACGTGATGGG, the “relative binding free energy” value worked out at 0.28 kcal/mol.

TTGAGCACGTGAGGTT: the “relative binding free energy” value amounted to 0.24 kcal/mol.

Consider AGGGGCACGTGTGTCC, for which the “relative binding free energy” value was -0.15 kcal/mol.

For the sequence GGAGGCACGTGCAAGT, the “relative binding free energy” value is -0.05 kcal/mol.

CTTGCCACGTGGAGGG: the “relative binding free energy” value was -0.12 kcal/mol.

TATATCACGTGGAGTT: the “relative binding free energy” value was 0.1 kcal/mol.

TCTGACACGTGGGTTG: the “relative binding free energy” value is -0.1 kcal/mol.

As to TGCTGCACGTGGTGGC, the “relative binding free energy” value was -0.09 kcal/mol.

TATATCACGTGAGATG: the “relative binding free energy” value was determined as 0.41 kcal/mol.

Turning to TTAGACACGTGGTTCT, the “relative binding free energy” value was found to be 0.07 kcal/mol.

Consider CTGGACACGTGTTAGT, for which the “relative binding free energy” value came to 0.02 kcal/mol.

For the sequence AAACGCACGTGGTAGT, the “relative binding free energy” value was -0.12 kcal/mol.

Take TTTTACACGTGTATGA: the “relative binding free energy” value came out at 0 kcal/mol.

Regarding GGTGGCACGTGAGCTG, the “relative binding free energy” value turned out to be 0.08 kcal/mol.

With TGTTGCACGTGTTCGA, the “relative binding free energy” value is -0.16 kcal/mol.

For CAGTTCACGTGAAGGT, the “relative binding free energy” value came to 0.32 kcal/mol.

Regarding ATGGTCACGTGCAAGA, the “relative binding free energy” value came out at 0.1 kcal/mol.

With TTCTCCACGTGGGTGT, the “relative binding free energy” value is -0.13 kcal/mol.

ATCTGCACGTGGAGGA: the “relative binding free energy” value was 0.1 kcal/mol.

Regarding CTATGCACGTGGGGGA, the “relative binding free energy” value was -0.26 kcal/mol.

With TGACGCACGTGTTATG, the “relative binding free energy” value is -0.1 kcal/mol.

On to TGCTTCACGTGGTAGA, for which the “relative binding free energy” value was found to be 0.36 kcal/mol.

For TATGACACGTGTGTGC, the “relative binding free energy” value amounted to 0.08 kcal/mol.

As to AGGTTCACGTGAAAGG, the “relative binding free energy” value turned out to be 0.27 kcal/mol.

Turning to GGTTGCACGTGTAGTA, the “relative binding free energy” value worked out at 0.12 kcal/mol.

Turning to GATAGCACGTGGTAAG, the “relative binding free energy” value is -0.08 kcal/mol.
